The text below walks through data of the supplement of paper PMC12217912.

B1: TEV protease; numbered along this chain (parent)
chain: MGESLFKGPRDYNPISSSICHLTNESDGHTTSLYGIGFGPFIITNKHLFRRNNGTLVVQSLHGVFKVKDTTTLQQHLVDGRDMIIIRMPKDFPPFPQKLKFREPQREERICLVTTNFQTKSMSSMVSDTSCTFPSGDGIFWKHWIQTKDGQCGSPLVSTRDGFIVGIHSASNFTNTNNYFTSVPKNFMELLTNQEAQQWVSGWRLNADSVLWGGHKVFMVKPEEPFQPVKEATQL

This is one part of the list. Sequences were assembled here from the parent chain. Values near 0.05 are background.

Variants of B1 are the subject of this assay. Put plainly: raw area under fraction-flipped curve 0-4 h after induction (AUC4h, not background-subtracted), DNA-recorder readout of cleavage of the substrate (dimensionless); higher = more cleavage of the substrate by the protease variant. Particulars: temperature: 34 °C; time window: 0-4 h after rhamnose induction. The method, then:
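In vivo DNA recorder in E. coli TOP10(DE3) ΔrhaA at 34 °C. Each TEVp single-site mutant (parent TEVp 0) is paired with a single-site variant of the 7-mer TEVs (canonical ENLYFQ|S). The substrate sits between flexible linkers in a Bxb1-sfGFP-TEVs-SsrA fusion, so cleavage stabilises Bxb1 and speeds flipping of a recombination array, read by NGS. The value is the raw area under the fraction-flipped curve over 0-4 h after rhamnose induction (AUC4h), with ≥20 reads per time point. It is not background-subtracted; inactive controls average about 0.047.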
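Further: Bxb1 expression induced with 0.2% (w/v) L-rhamnose at OD600 near 0.5, cultures sampled hourly, flipped fraction per protease–substrate barcode pair counted by paired-end Illumina sequencing.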

MGESLFKGPRDYNPISSSICHLTNESDGHTTSLYGIGFGPFIITNKHLFRRNNGTLVVQSLHGVFKVKDTTTLQQHLVDGRDMIIIRMPKDFPPFPQKLKFREPQREERICLVTTNFQTKSMSSEVSDTSCTFPSGDGIFWKHWIQTKDGQCGSPLVSTRDGFIVGIHSASNFTNTNNYFTSVPKNFMELLTNQEAQQWVSGWRLNADSVLWGGHKVFMVKPEEPFQPVKEATQL [M125E]: the “area with substrate ECLYFQS” value was determined as 0.0256, the “area with substrate EELYFQS” value is 0.127, the “area with substrate EHLYFQS” value is 0.0948 and the “area with substrate EILYFQS” value worked out at 0.114. Moreover, the “area with substrate ELLYFQS” value is 0.0989, the “area with substrate EMLYFQS” value stood at 0.0926, the “area with substrate EQLYFQS” value was 0.104 and the “area with substrate ERLYFQS” value is 0.0883. Further, the “area with substrate ESLYFQS” value is 0.0984 and the “area with substrate EWLYFQS” value came to 0.0485.
MGESLFKGPRDYNPISSSICHLTNESDGHTTSLYGIGFGPFIITNKHLFRRNNGTLVVQSLHGVFKVKDTTTLQQHLVDGRDMIIIRMPKDFPPFPQKLKFREPQREERICLVTTNFQTKSMSSRVSDTSCTFPSGDGIFWKHWIQTKDGQCGSPLVSTRDGFIVGIHSASNFTNTNNYFTSVPKNFMELLTNQEAQQWVSGWRLNADSVLWGGHKVFMVKPEEPFQPVKEATQL [M125R]: the “area with substrate ECLYFQS” value came to 0.135, the “area with substrate EDLYFQS” value turned out to be 0.127, the “area with substrate EELYFQS” value amounted to 0.129 and the “area with substrate EFLYFQS” value stood at 0.14. Besides, the “area with substrate EGLYFQS” value was 0.125, the “area with substrate EHLYFQS” value worked out at 0.109, the “area with substrate EILYFQS” value was found to be 0.0801 and the “area with substrate EPLYFQS” value was determined as 0.13. Also, the “area with substrate EQLYFQS” value amounted to 0.134, the “area with substrate ERLYFQS” value worked out at 0.141, the “area with substrate ESLYFQS” value came to 0.108 and the “area with substrate ETLYFQS” value was 0.118. In addition, the “area with substrate EYLYFQS” value stood at 0.145.
Consider MGESLFKGPRDYNPISSSICHLTNESDGHTTSLYGIGFGPFIITNKHLFRRNNGTLVVQSLHGVFKVKDTTTLQQHLVDGRDMIIIRMPKDFPPFPQKLKFREPQREERICLVTTNFQTKSMSSSVSDTSCTFPSGDGIFWKHWIQTKDGQCGSPLVSTRDGFIVGIHSASNFTNTNNYFTSVPKNFMELLTNQEAQQWVSGWRLNADSVLWGGHKVFMVKPEEPFQPVKEATQL [M125S], for which the “area with substrate ECLYFQS” value was 0.0958, the “area with substrate EFLYFQS” value was determined as 0.104, the “area with substrate EHLYFQS” value worked out at 0.13 and the “area with substrate EILYFQS” value is 0.126. In addition, the “area with substrate EKLYFQS” value was determined as 0.0862, the “area with substrate EMLYFQS” value amounted to 0.0047, the “area with substrate ERLYFQS” value came to 0.0965 and the “area with substrate ESLYFQS” value was found to be 0.103. In addition, the “area with substrate EVLYFQS” value was determined as 0.0808 and the “area with substrate EYLYFQS” value was determined as 0.115.
Turning to MGESLFKGPRDYNPISSSICHLTNESDGHTTSLYGIGFGPFIITNKHLFRRNNGTLVVQSLHGVFKVKDTTTLQQHLVDGRDMIIIRMPKDFPPFPQKLKFREPQREERICLVTTNFQTKSTSSMVSDTSCTFPSGDGIFWKHWIQTKDGQCGSPLVSTRDGFIVGIHSASNFTNTNNYFTSVPKNFMELLTNQEAQQWVSGWRLNADSVLWGGHKVFMVKPEEPFQPVKEATQL [M122T], the “area with substrate ECLYFQS” value is 0.0955, the “area with substrate EDLYFQS” value worked out at 0.13, the “area with substrate EGLYFQS” value is 0.0924 and the “area with substrate EILYFQS” value was 0.0949. Further, the “area with substrate EKLYFQS” value is 0.108, the “area with substrate ERLYFQS” value was determined as 0.122, the “area with substrate ESLYFQS” value was 0.159 and the “area with substrate EVLYFQS” value came out at 0.095.
As to MGESLFKGPRDYNPISSSICHLTNESDGHTTSLYGIGFGPFIITNKHLFRRNNGTLVVQSLHGVFKVKDTTTLQQHLVDGRDMIIIRMPKDFPPFPQKLKFREPQREERICLVTTNFQTKSNSSMVSDTSCTFPSGDGIFWKHWIQTKDGQCGSPLVSTRDGFIVGIHSASNFTNTNNYFTSVPKNFMELLTNQEAQQWVSGWRLNADSVLWGGHKVFMVKPEEPFQPVKEATQL [M122N], the “area with substrate ECLYFQS” value was found to be 0.177, the “area with substrate EFLYFQS” value was found to be 0.0807, the “area with substrate EKLYFQS” value was determined as 0.119 and the “area with substrate ELLYFQS” value came out at 0.0707. The “area with substrate ERLYFQS” value turned out to be 0.117.
For MGESLFKGPRDYNPISSSICHLTNESDGHTTSLYGIGFGPFIITNKHLFRRNNGTLVVQSLHGVFKVKDTTTLQQHLVDGRDMIIIRMPKDFPPFPQKLKFREPQREERICLVTTNFQTKSASSMVSDTSCTFPSGDGIFWKHWIQTKDGQCGSPLVSTRDGFIVGIHSASNFTNTNNYFTSVPKNFMELLTNQEAQQWVSGWRLNADSVLWGGHKVFMVKPEEPFQPVKEATQL [M122A], the “area with substrate ECLYFQS” value worked out at 0.127, the “area with substrate EELYFQS” value was 0.076, the “area with substrate EGLYFQS” value was determined as 0.135 and the “area with substrate EHLYFQS” value turned out to be 0.113. In addition, the “area with substrate EILYFQS” value is 0.0851, the “area with substrate EKLYFQS” value turned out to be 0.12, the “area with substrate ESLYFQS” value was 0.0927 and the “area with substrate EVLYFQS” value was determined as 0.106. Besides, the “area with substrate EWLYFQS” value amounted to 0.124.
Turning to MGESLFKGPRDYNPISSSICHLTNESDGHTTSLYGIGFGPFIITNKHLFRRNNGTLVVQSLHGVFKVKDTTTLQQHLVDGRDMIIIRMPKDFPPFPQKLKFREPQREERICLVTTNFQTKSMSSMVMDTSCTFPSGDGIFWKHWIQTKDGQCGSPLVSTRDGFIVGIHSASNFTNTNNYFTSVPKNFMELLTNQEAQQWVSGWRLNADSVLWGGHKVFMVKPEEPFQPVKEATQL [S127M], the “area with substrate ECLYFQS” value was determined as 0.123, the “area with substrate EELYFQS” value was 0.142, the “area with substrate EGLYFQS” value stood at 0.113 and the “area with substrate EKLYFQS” value was 0.0996. Also, the “area with substrate ELLYFQS” value was 0.086, the “area with substrate EPLYFQS” value was 0.137, the “area with substrate ERLYFQS” value amounted to 0.117 and the “area with substrate ESLYFQS” value came out at 0.12. For the same variant, the “area with substrate EVLYFQS” value stood at 0.0989 and the “area with substrate EWLYFQS” value turned out to be 0.0935.
For the variant MGESLFKGPRDYNPISSSICHLTNESDGHTTSLYGIGFGPFIITNKHLFRRNNGTLVVQSLHGVFKVKDTTTLQQHLVDGRDMIIIRMPKDFPPFPQKLKFREPQREERICLVTTNFQTKSMSSMESDTSCTFPSGDGIFWKHWIQTKDGQCGSPLVSTRDGFIVGIHSASNFTNTNNYFTSVPKNFMELLTNQEAQQWVSGWRLNADSVLWGGHKVFMVKPEEPFQPVKEATQL [V126E], the “area with substrate ECLYFQS” value is 0.105, the “area with substrate EDLYFQS” value amounted to 0.101, the “area with substrate ELLYFQS” value was 0.0578 and the “area with substrate EMLYFQS” value was 0.0999. For the same variant, the “area with substrate EPLYFQS” value is 0.0548, the “area with substrate ERLYFQS” value is 0.0926, the “area with substrate ESLYFQS” value came out at 0.0777 and the “area with substrate EWLYFQS” value was found to be 0.0958.
Turning to MGESLFKGPRDYNPISSSICHLTNESDGHTTSLYGIGFGPFIITNKHLFRRNNGTLVVQSLHGVFKVKDTTTLQQHLVDGRDMIIIRMPKDFPPFPQKLKFREPQREERICLVWTNFQTKSMSSMVSDTSCTFPSGDGIFWKHWIQTKDGQCGSPLVSTRDGFIVGIHSASNFTNTNNYFTSVPKNFMELLTNQEAQQWVSGWRLNADSVLWGGHKVFMVKPEEPFQPVKEATQL [T114W], the “area with substrate ECLYFQS” value is 0.0922, the “area with substrate EELYFQS” value worked out at 0.113, the “area with substrate EFLYFQS” value was determined as 0.0979 and the “area with substrate EGLYFQS” value was determined as 0.0785. Besides, the “area with substrate EHLYFQS” value was 0.111, the “area with substrate EILYFQS” value amounted to 0.108, the “area with substrate EKLYFQS” value was 0.0926 and the “area with substrate ELLYFQS” value came to 0.0715. Further, the “area with substrate EMLYFQS” value worked out at 0.111, the “area with substrate EQLYFQS” value amounted to 0.114, the “area with substrate ERLYFQS” value was found to be 0.135 and the “area with substrate ESLYFQS” value came out at 0.0919. The “area with substrate EVLYFQS” value was found to be 0.0939 and the “area with substrate EWLYFQS” value was 0.0937.
Turning to MGESLFKGPRDYNPISSSICHLTNESDGHTTSLYGIGFGPFIITNKHLFRRNNGTLVVQSLHGVFKVKDTTTLQQHLVDGRDMIIIRMPKDFPPFPQKLKFREPQREERICLVATNFQTKSMSSMVSDTSCTFPSGDGIFWKHWIQTKDGQCGSPLVSTRDGFIVGIHSASNFTNTNNYFTSVPKNFMELLTNQEAQQWVSGWRLNADSVLWGGHKVFMVKPEEPFQPVKEATQL [T114A], the “area with substrate ECLYFQS” value was 0.101, the “area with substrate EGLYFQS” value came to 0.0843, the “area with substrate EILYFQS” value turned out to be 0.09 and the “area with substrate EKLYFQS” value was found to be 0.128. Moreover, the “area with substrate ELLYFQS” value came out at 0.08, the “area with substrate EPLYFQS” value was 0.116, the “area with substrate EQLYFQS” value came to 0.109 and the “area with substrate ERLYFQS” value came out at 0.103. The “area with substrate ESLYFQS” value came to 0.105.
